The structures appear in SMILES notation. Bounds are passed on as bounds.

In this assay the target is E. coli MenE (ecMenE) (Escherichia coli, UniProt P37353). The assay can be described thus: MenE-MenB coupled assay (enzyme inhibition, catalytic parameters).
E. coli MenE (ecMenE), sequence (P37353 whole entry): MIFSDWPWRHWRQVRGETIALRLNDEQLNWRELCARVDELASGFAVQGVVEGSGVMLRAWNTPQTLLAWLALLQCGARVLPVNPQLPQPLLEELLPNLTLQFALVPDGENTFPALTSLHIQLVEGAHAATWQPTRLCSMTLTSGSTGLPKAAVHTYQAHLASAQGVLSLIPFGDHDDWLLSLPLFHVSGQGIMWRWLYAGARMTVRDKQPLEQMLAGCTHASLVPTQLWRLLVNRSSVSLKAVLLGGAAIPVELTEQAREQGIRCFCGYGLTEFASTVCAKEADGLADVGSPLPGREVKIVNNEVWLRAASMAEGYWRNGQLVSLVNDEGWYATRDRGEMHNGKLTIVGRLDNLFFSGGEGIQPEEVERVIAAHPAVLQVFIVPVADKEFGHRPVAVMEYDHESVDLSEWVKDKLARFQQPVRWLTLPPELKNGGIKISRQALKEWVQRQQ

The compound `Nc1ncnc2c1ncn2[C@@H]1O[C@H](COS(=O)(=O)NC(=O)CCC2OC(=O)c3ccccc32)[C@@H](O)[C@H]1O` (some centres unmarked) [Compound 107, 5′-O—(N-[3-(3-Oxo-1,3-dihydroisobenzofuran-1-yl)propanoyl]sulfamoyl) adenosine] yielded a 50% inhibitory concentration (IC50) above 100 µM.

Compound `Nc1ncnc2c1ncn2[C@@H]1O[C@H](COS(=O)(=O)NC(=O)CCC2(O)NC(=O)c3ccccc32)[C@@H](O)[C@H]1O` (some centres unmarked) [Compound 108, 5′-O—(N-[3-(1-Hydroxy-3-oxoisoindolin-1-yl)propanoyl]sulfamoyl) adenosine] gave a 50% inhibitory concentration (IC50) above 100 µM.

The record behind these values is patent US20180273573A1, “INHIBITORS OF MENAQUINONE BIOSYNTHESIS” (Memorial Sloan-Kettering Cancer Center, priority 2015, published 2018).
